{
  "source": "paper PMC4336329",
  "about": "(PLoS ONE, 2015)",
  "note": "Hit rate of the full screen: of about 310,000 compounds, about 2,200 (0.71%) showed an effect of 50% or more. Effects have a minus sign here. This is one part of the list.",
  "data": [
    {"target": "human ether-à-go-go-related gene (hERG) potassium channel (human, UniProt Q12809)", "sequence (Q12809 whole entry, looked up)": "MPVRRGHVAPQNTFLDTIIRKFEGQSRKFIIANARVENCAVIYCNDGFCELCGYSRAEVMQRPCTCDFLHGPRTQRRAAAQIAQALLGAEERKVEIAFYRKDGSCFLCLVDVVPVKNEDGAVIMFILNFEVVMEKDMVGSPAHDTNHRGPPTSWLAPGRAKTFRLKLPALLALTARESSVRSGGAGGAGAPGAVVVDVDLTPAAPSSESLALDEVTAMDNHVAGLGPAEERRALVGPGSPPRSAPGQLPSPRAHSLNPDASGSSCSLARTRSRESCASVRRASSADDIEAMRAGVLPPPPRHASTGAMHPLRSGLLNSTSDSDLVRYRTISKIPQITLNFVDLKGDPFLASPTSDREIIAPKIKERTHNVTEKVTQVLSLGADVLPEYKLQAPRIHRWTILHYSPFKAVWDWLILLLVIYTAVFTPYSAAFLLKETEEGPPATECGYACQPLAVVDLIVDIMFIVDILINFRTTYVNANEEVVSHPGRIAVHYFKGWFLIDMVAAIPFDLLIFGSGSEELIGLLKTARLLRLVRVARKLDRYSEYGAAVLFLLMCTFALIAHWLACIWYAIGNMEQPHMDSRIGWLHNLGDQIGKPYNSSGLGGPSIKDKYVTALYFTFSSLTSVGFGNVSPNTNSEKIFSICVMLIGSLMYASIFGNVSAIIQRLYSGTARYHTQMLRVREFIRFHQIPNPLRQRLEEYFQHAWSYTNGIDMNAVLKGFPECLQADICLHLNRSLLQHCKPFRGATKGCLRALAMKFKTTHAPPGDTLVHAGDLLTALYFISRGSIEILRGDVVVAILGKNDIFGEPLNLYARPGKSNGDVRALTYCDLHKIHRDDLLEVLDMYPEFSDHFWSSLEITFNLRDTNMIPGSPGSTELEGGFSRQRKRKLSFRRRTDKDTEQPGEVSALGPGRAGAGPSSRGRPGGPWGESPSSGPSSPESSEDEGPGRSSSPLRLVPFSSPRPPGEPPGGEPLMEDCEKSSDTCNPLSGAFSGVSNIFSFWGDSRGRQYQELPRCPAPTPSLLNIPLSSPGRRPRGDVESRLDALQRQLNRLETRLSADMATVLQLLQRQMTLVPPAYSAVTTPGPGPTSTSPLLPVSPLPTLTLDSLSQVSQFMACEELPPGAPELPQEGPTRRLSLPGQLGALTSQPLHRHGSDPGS", "assay": "primary screen, population patch clamp on CHO cells stably expressing hERG", "units": {"hERG current change (%, negative = inhibition) at 1uM": "%"}, "values": [
      {"smiles": "O=C(O)c1ccccc1N=Nc1c(O)[nH]c2ccc([N+](=O)[O-])cc12", "hERG current change (%, negative = inhibition) at 1uM": 5.1},
      {"smiles": "CCOc1ccc(NC(=S)NC(=O)c2cncc(Br)c2)cc1", "hERG current change (%, negative = inhibition) at 1uM": 12.7},
      {"smiles": "CCOC(=O)N1CCN(C(=O)CSc2ccc(-c3cccc(OC)c3)nn2)CC1", "hERG current change (%, negative = inhibition) at 1uM": -4.47},
      {"smiles": "OC(COc1ccc2cc(Br)ccc2c1)CN1CCOCC1", "note": "(stereo not drawn)", "hERG current change (%, negative = inhibition) at 1uM": -2.4},
      {"smiles": "NC(=O)c1c(NC(=O)CSc2nnc(Cc3ccccc3)n2Cc2ccco2)sc2c1CCC2", "hERG current change (%, negative = inhibition) at 1uM": 9.05},
      {"smiles": "CCOc1ccc(S(=O)(=O)N(CC)CC)cc1NC(=O)CSCc1c(C)noc1C", "hERG current change (%, negative = inhibition) at 1uM": -17.7},
      {"smiles": "O=C(Nc1ccc2nc(-c3cccnc3)[nH]c2c1)c1ccco1", "hERG current change (%, negative = inhibition) at 1uM": 12.7},
      {"smiles": "Cn1cc(S(=O)(=O)NC2CCCCC2)c(=O)n(C)c1=O", "hERG current change (%, negative = inhibition) at 1uM": 4.22},
      {"smiles": "COc1ccc(C2NCc3ccc4c(c3-n3cccc32)OCO4)cc1O.Cl", "note": "(stereo not drawn)", "hERG current change (%, negative = inhibition) at 1uM": 4.14},
      {"smiles": "COc1ccc(Br)cc1-c1nc2c(c(=O)[nH]c(=O)n2Cc2ccccc2)n1C", "hERG current change (%, negative = inhibition) at 1uM": 5.02},
      {"smiles": "Cc1ccc(OCCN2CCN(C)CC2)c([N+](=O)[O-])c1.O=C(O)C(=O)O", "hERG current change (%, negative = inhibition) at 1uM": 8.56},
      {"smiles": "c1ccc2sc(NC3=NCN(CCN4CCOCC4)CN3)nc2c1", "hERG current change (%, negative = inhibition) at 1uM": 9.82},
      {"smiles": "Cn1c(CNC(=O)c2ccccc2F)nnc1SCc1ccc(F)cc1", "hERG current change (%, negative = inhibition) at 1uM": 2.95},
      {"smiles": "CC(=O)c1nn(-c2cccc(Br)c2)cc1C(=O)c1ccccc1", "hERG current change (%, negative = inhibition) at 1uM": 22},
      {"smiles": "CCN(CC(=O)NC1CCS(=O)(=O)C1)c1ccc([N+](=O)[O-])cc1C#N", "note": "(stereo not drawn)", "hERG current change (%, negative = inhibition) at 1uM": 0.543},
      {"smiles": "Cc1nnc2n(c1=O)N=C(c1ccc(Cl)cc1)CS2", "hERG current change (%, negative = inhibition) at 1uM": 12.3},
      {"smiles": "CSc1nc2ccccc2n1CC(=O)Nc1ccc(C)c(C)c1", "hERG current change (%, negative = inhibition) at 1uM": 18.9},
      {"smiles": "CC[C@@H]1[C@H]2CCCC(=O)N3CC[C@@H](C[C@H]1O)[C@@H]23", "hERG current change (%, negative = inhibition) at 1uM": 8.77},
      {"smiles": "Cc1ccc2nc(NCCO)nc(-c3ccccc3)c2c1", "hERG current change (%, negative = inhibition) at 1uM": 1.36},
      {"smiles": "O=C(Nc1ccc2c(c1)C(=O)NC2=O)c1ccccc1Cl", "hERG current change (%, negative = inhibition) at 1uM": 6.33},
      {"smiles": "O=C(Nc1ccc([N+](=O)[O-])cc1)Nn1cnnc1", "hERG current change (%, negative = inhibition) at 1uM": 9.51},
      {"smiles": "COc1nccnc1NS(=O)(=O)c1ccc(NCc2ccccc2O)cc1", "hERG current change (%, negative = inhibition) at 1uM": 14.3},
      {"smiles": "C[C@@]12C(=O)N(CCO)CC(=O)N1[C@H](/C=C/c1ccccc1)[C@@H]1C(=O)N(c3ccccc3)C(=O)[C@@H]12", "hERG current change (%, negative = inhibition) at 1uM": 1.88},
      {"smiles": "O=C(Nc1ccc(N2CCOCC2)cc1)c1cc2c(s1)CCCCC2", "hERG current change (%, negative = inhibition) at 1uM": 10}
    ]}
  ]
}
